# PubChem BioAssay AID485344 (National Center for Advancing Translational Sciences (NCATS), 2010)
# Hit rate of the full screen: of about 340,000 compounds, about 6,900 (2%) were called active. Cut-off read from the data, not from the text of the source: active = inhibition above about 30%; inactive = below that, where a call was filed. The list shows a part of the results, in another mix than the full data. Entries without a call were filed so in the source.
# Molecular target: D(2) dopamine receptor (Homo sapiens) (UniProt P14416)
# Sequence of UniProt P14416 (P14416 whole entry, looked up): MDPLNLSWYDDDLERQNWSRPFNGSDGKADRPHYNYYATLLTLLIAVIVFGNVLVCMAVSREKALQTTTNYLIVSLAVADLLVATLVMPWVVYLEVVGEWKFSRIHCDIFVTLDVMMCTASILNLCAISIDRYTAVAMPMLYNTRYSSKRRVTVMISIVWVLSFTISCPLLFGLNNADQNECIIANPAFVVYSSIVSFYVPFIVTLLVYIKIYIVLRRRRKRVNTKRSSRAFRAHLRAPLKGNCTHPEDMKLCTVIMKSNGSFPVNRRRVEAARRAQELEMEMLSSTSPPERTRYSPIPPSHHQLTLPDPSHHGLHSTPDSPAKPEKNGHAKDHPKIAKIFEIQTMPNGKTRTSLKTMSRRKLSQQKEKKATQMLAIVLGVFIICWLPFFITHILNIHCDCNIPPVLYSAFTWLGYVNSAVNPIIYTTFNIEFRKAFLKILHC
# Assay: HTS Assay for Allosteric Antagonists of the Human D2 Dopamine Receptor: Primary Screen for Antagonists; note: 0% is about no effect
# Settings: HEK293 TREx D2 cells, calcium flux, dopamine EC80; at 10 µM; stronger effect = higher value
# Procedure, shortened: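 Tetracycline-induced HEK293 T-REx cells expressing D2 force-coupled to calcium signalling were dye-loaded, exposed to compound for 180 s, then challenged with an EC80 of dopamine; calcium flux was followed kinetically for a further 180 s.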
row,Structure (SMILES),inhibition
1,CCc1cccc(-n2c(=O)c3cccnc3n2CC(=O)NCc2ccc(C)cc2)c1,-5%
2,O=C(CCCCCn1c(=O)c2sccc2n(CC(=O)Nc2cc(C(F)(F)F)ccc2Cl)c1=O)NCc1ccccc1Cl,-1.69%
3,Cc1ccc(NC(=O)c2cc3ccccn3n2)cc1F,-7.2%
4,Cc1ccc(NC(=O)Cn2cnc3onc(-c4ccc(F)cc4)c3c2=O)c(Cl)c1,3.91%
5,O=C(CN1C(=O)C2(SCC(=O)N2c2cccc(Cl)c2)c2ccccc21)NCc1ccccc1 (stereo unspecified),-4.93%
6,O=C(CCN1C(=O)c2ccccc2S1(=O)=O)N1CCN(c2ccc(F)cc2)CC1,active: 32.8%
7,CC(C)(C)c1ccc(OCC(=O)NCC2(N3CCOCC3)CCCCC2)cc1,-19.7%
8,Cc1nc(N)sc1C(=O)N/N=C/c1ccccc1[N+](=O)[O-],active: 33%
9,COc1ccc(NC(=O)CCCn2c(=O)c3cccn3c3cccnc32)cc1Cl,-0.786%
10,CCOc1ccccc1CNC(=O)c1oc2c(c1C)-c1[nH]ncc1CC2,17.3%
11,CCCN(CCC)C(=O)Cn1c(=O)n(CCCCCC(=O)NCc2ccc3c(c2)OCO3)c(=O)c2sccc21,-6.48%
12,CCOC(=O)c1c(NC(=O)c2cc(OC)c(OC)c(OC)c2)sc2c1CCCC2,4.38%
13,Cc1ccc(C)n1-c1nnc(N2CCCC(C(=O)Nc3ccccc3Br)C2)s1 (stereo unspecified),4.72%
14,COc1ccccc1-c1noc(CCCC(=O)Nc2cccc(C(F)(F)F)c2)n1,3.8%
15,O=[N+]([O-])c1ccccc1/C=C/CN1CCN(Cc2ccc3c(c2)OCO3)CC1,active: 31.5%
16,O=C(NNc1nc2ccc(F)cc2s1)c1cccc(F)c1,active: 40.7%
17,COC(=O)C(C)n1cnc2c(nnn2-c2ccccc2)c1=O (stereo unspecified),active: 30.5%
18,CC(=O)Nc1ccc(Nc2ncnc3c2cnn3C)cc1,10.5%
19,Cc1ccccc1CSc1nc(-c2cccc(F)c2)nc2c1Cc1c(CO)cnc(C)c1O2,14.2%
20,COc1ccc(OC)c(CNC(=O)c2nn(C)c3c2CS(=O)(=O)c2ccccc2-3)c1,-8.51%
21,CN(C)C(=O)c1ccc2c(c1)N(CC(=O)NCc1ccccc1Cl)C(=O)C1CCCCN21 (stereo unspecified),18%
22,CCN(C(=O)CSc1nc(-c2ccccc2)no1)c1ccccc1,-2.6%
23,CCOc1cc(CNC(=O)c2ccc3nc(C(C)C)oc3c2)cc(OCC)c1OCC,1.7%
24,O=C(Cn1c(=O)n(-c2ccccc2)c(=O)c2ccc(C(=O)NCc3ccc4c(c3)OCO4)cc21)Nc1ccc(Br)cc1,-16.6%
25,Cc1ccc(C)c(N2CCN(C(=O)c3cc4c(=O)oc5ccccc5c4s3)CC2)c1,6.91%
26,CCCCN(CC)C(=O)c1nn(-c2ccc(OC)cc2)c(=O)c2c1c1ccccc1n2C,-14.7%
